# Laboratory results as given in patent US9433687B2, “Anti-Notch3 antibodies and antibody-drug conjugates” (Pfizer Inc., priority 2012, dated 2016).
# Values joined by “and” are separate entries in the source; they are usually repeats but may differ in a detail not shown here. Equal entries are not always repeated.
# B1: hu28-vc0101: hu28 conjugated to vc0101 linker-payload (conjugate)
# heavy: EVQLVESGGGLVQPGGSLRLSCAASGFTFRDYGMTWVRQAPGKGLEWVAYISSGSNYIYYAEAVKGRFTISRDNAKNSLYLQMNSLRAEDTAVYYCARRGPFVLDAWGQGTLVTVSS[letters of human IgG1 constant region omitted]
# light: DIQMTQSPSSLSASVGDRVTITCKASQSINRYLHWYQQKPGKAPKLLIYNANGLQTGVPSRFSGSGSGTDFTLTISSLQPEDFATYYCLQHNTWPDTFGGGTKVEIKRTVAAPSVFIFPPSDEQLKSGTASVVCLLNNFYPREAKVQWKVDNALQSGNSQESVTEQDSKDSTYSLSSTLTLSKADYEKHKVYACEVTHQGLSSPVTKSFNRGEC
# How the values were obtained:
# HCC2429 = target: T1, HCC2429 (Homo sapiens, UniProt Q9UM47); assay: Cytotoxicity (MTS) after control or Notch3 siRNA, HCC2429; assay type: cell-based; conditions: 96 hours, LP = lacked potency
# T1 construct: endogenous Notch3 expressing cell lines, HCC2429 and MDA-MB-468; endogenous in cells; host or cells: HCC2429
# Procedure: Notch3 knockdown with siRNAs was used to confirm that the in vitro cytotoxicity of anti-Notch3 ADCs was dependent on the expression of the Notch3 protein. siRNA transfections were generated using ON-TARGET plus SMART pool human Notch3 (L-011093-00), ON-TARGET plus Control Non-Targeting pool (D-001810-10) (Thermo Scientific Dharmacon) and Lipofectamine RNAiMAX Reagent (Invitrogen). Two to 2.5×10^6 cells of HCC2429, OVCAR3 and MDA-MB-468/hNotch3 cells were plated in 10 cm dishes in growth medium without antibiotics the day before transfection. The next day fresh medium without antibiotics was added. The siRNAs and the Lipofectamine RNAiMAX were diluted in OPTI-MEM media and used as per the manufacturer's specifications. Each of the cell lines was transfected with control and Notch3 siRNAs. The cells were incubated with the transfection mixture for 24 hours in a humidified, 37° C., 5% CO2 incubator. After 24 hours, cells were trypsinized and plated for assessment using MTS cellular viability indicator (Promega, Madison, Wis.).
# Depending on the cell line, cells were then seeded at a density of 2,500 to 5,000 cells per well 24 hours before treatment. Cells were treated with 3-fold serially diluted humanized anti-Notch3 ADCs in triplicates at 10 concentrations (range 0-30 μg Ab/ml). […] For experiments with 2 individual repeats, average IC50 values were calculated along with standard error of the mean (S.E.M.). Western blot analysis on extracts prepared from control and Notch3 siRNA-treated cells was performed to confirm that Notch3 knockdown occurred for up to 144 hours (data not shown). Cell lines that expressed Notch3 (herein termed control siRNA) or had reduced Notch3 expression after siRNA knockdown (herein termed Notch3 siRNA) were cultured with increasing concentrations of humanized anti Notch3 ADCs. As a specificity control for the anti-Notch3 ADCs, non-targeted control-ADCs (huNeg8.8-ADCs) were also tested on the same cell lines. After four days, viability of each culture was assessed. IC50 values were calculated by logistic non-linear regression, model #203 with XL fit v4.2 (IDBS, Guildford, Surry, UK) and presented as ng Ab/mL. The drug antibody ratio (DAR) is also provided.
# N87 gastric xenografts = assay: N87 gastric xenograft model; assay type: in vivo, mouse
# Procedure: Similar in vivo experiments were performed with the N87 gastric cancer cell line as described above. To generate xenografts, nude (Nu/Nu) female mice were implanted subcutaneously with 8×10^6 N87 cells in 50% Matrigel (BD Biosciences).
# The N87 gastric model was also dosed intravenously Q4d×4 with PBS vehicle, rat-human chimeric anti-Notch3 ADCs and control huNeg-8.8 ADCs, at a dose of 5 mg/kg as provided in FIG. 16D.
# The N87 gastric model was also dosed intravenously Q4d×4 with PBS vehicle and rat-human chimeric anti-Notch3 ADCs ch28-mc0131, ch75-mc0131, ch28-m(H2O)c-0131 and ch75-m(H2O)c-0131 at a dose of 5 mg/kg as provided in FIG. 16E.
# MDA-MB-468/hNotch3 = target: T2, MDA-MB-468/hNotch3 (Homo sapiens, UniProt Q9UM47); assay: In vitro cytotoxicity (MTS), MDA-MB-468/hNotch3; assay type: cell-based; conditions: Table 14; two individual repeats; LP = lacked potency
# T2 construct: cell lines engineered to over-express full length human Notch3 protein: MDA-MB-468/hNotch3 and U2OS/hNotch3; expressed in transfected cells; host or cells: MDA-MB-468
# Procedure: The effects of anti-Notch3 ADCs were assessed on 1) cell lines endogenously expressing Notch3 protein: HCC2429 (lung cancer), OVCAR3 (ovarian cancer) and MDA-MB-468 (breast cancer), 2) cell lines engineered to over-express full length human Notch3 protein: MDA-MB-468/hNotch3 and U2OS/hNotch3, and 3) a negative control cell line (SW900) using an MTS cellular viability indicator (Promega, Madison, Wis.). These cell lines were cultured with increasing concentrations of anti-Notch3 ADCs comprising rat-human chimeric anti-Notch3 antibodies, ch28 and ch75, and humanized anti-Notch3 antibodies, hu28 and hu75, conjugated to various linker-payload combinations of the present invention. As a specificity control for the anti-Notch3-ADCs, non-targeted control-ADCs (huNeg8.8-ADCs or ch2H6-ADCs) were also tested on the same cell lines. After four days, viability of each culture was assessed. IC50 values were calculated by logistic non-linear regression, model #203 with XL fit v4.2 (IDBS, Guildford, Surry, UK) and presented as ng Ab/mL. The drug antibody ratio (DAR) is also provided.
# T1 sequence (Q9UM47 40-2321): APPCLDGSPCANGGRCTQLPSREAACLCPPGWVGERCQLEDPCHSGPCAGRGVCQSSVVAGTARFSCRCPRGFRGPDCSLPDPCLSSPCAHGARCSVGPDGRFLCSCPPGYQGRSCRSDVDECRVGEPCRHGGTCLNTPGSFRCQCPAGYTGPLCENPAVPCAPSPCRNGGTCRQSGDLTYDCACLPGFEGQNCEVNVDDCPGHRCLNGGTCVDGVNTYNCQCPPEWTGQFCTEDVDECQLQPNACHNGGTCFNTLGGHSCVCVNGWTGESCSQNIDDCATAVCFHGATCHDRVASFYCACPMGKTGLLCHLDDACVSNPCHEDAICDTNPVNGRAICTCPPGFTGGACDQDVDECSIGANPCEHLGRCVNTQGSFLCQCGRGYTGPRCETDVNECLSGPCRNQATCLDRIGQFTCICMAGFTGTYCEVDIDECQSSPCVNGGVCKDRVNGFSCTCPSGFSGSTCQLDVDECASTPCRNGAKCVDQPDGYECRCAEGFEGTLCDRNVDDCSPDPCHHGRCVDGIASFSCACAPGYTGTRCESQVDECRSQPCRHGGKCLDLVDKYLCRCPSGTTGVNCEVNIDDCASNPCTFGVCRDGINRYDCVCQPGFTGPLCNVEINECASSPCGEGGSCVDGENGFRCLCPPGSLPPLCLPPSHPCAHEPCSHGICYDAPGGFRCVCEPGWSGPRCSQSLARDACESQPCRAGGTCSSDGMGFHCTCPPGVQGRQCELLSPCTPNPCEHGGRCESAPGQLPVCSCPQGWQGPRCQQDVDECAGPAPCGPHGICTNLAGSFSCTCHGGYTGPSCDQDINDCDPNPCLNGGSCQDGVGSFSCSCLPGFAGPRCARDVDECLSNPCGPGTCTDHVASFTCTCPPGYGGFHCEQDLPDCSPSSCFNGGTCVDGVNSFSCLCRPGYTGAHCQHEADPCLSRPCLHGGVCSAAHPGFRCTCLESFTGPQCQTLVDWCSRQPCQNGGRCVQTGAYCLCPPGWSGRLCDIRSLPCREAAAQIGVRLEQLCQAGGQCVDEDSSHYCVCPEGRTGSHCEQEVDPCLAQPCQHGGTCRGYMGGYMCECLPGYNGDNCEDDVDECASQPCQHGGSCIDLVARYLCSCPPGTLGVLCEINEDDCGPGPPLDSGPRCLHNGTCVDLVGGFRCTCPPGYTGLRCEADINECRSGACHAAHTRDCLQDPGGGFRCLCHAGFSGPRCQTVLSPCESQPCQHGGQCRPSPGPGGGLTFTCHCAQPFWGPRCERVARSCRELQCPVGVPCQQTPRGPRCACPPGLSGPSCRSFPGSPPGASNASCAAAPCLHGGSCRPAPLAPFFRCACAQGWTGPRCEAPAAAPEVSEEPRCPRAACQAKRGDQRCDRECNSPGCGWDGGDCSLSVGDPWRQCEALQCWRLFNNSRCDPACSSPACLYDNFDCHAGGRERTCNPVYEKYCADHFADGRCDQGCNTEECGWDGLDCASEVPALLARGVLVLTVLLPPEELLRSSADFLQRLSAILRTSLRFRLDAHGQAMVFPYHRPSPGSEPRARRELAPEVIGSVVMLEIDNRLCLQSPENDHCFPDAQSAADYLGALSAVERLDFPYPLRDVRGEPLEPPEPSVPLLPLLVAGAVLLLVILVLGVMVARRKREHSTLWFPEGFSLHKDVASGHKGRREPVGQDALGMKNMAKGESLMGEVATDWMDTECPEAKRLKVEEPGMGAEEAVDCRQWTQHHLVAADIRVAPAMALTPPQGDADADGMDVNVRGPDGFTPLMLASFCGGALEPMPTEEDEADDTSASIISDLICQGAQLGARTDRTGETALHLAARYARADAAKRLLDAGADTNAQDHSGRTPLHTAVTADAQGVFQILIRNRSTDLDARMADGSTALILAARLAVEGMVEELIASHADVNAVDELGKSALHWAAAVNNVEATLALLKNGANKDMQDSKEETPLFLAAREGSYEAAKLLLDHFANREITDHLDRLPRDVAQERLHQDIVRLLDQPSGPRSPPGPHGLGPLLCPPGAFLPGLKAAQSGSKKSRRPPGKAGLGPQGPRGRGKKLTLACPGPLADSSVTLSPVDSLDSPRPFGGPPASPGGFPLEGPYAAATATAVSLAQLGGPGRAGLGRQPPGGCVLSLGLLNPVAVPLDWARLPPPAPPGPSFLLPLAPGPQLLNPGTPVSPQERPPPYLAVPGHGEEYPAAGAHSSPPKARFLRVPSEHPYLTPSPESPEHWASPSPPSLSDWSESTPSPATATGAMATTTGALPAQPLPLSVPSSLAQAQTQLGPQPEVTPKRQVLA
# T2 sequence (Q9UM47 40-2321): as above
molecule,measurement,setting,value
B1,"IC50 (ng Ab/mL) ± S.E.M., HCC2429 Control siRNA",HCC2429; Control siRNA,930 ± 529 ng Ab/mL
same,"IC50 (ng Ab/mL) ± S.E.M., HCC2429 Notch3 siRNA",HCC2429; Notch3 siRNA knockdown,7138 ± 827 ng Ab/mL
same,tumor volume,"N87 gastric xenografts; DAY 0, dose 1 mg/kg intravenously Q4d×4",321 mm^3
same,tumor volume,"N87 gastric xenografts; DAY 0, dose 3 mg/kg intravenously Q4d×4",326 mm^3
same,tumor volume,"N87 gastric xenografts; DAY 0, dose 5 mg/kg intravenously Q4d×4",321 mm^3
same,tumor volume,"N87 gastric xenografts; DAY 4, dose 1 mg/kg intravenously Q4d×4",369 mm^3
same,tumor volume,"N87 gastric xenografts; DAY 4, dose 3 mg/kg intravenously Q4d×4",339 mm^3
same,tumor volume,"N87 gastric xenografts; DAY 4, dose 5 mg/kg intravenously Q4d×4",344 mm^3
same,tumor volume,"N87 gastric xenografts; DAY 7, dose 1 mg/kg intravenously Q4d×4",429 mm^3
same,tumor volume,"N87 gastric xenografts; DAY 7, dose 3 mg/kg intravenously Q4d×4",302 mm^3
same,tumor volume,"N87 gastric xenografts; DAY 7, dose 5 mg/kg intravenously Q4d×4",272 mm^3
same,tumor volume,"N87 gastric xenografts; DAY 11, dose 1 mg/kg intravenously Q4d×4",304 mm^3
same,tumor volume,"N87 gastric xenografts; DAY 11, dose 3 mg/kg intravenously Q4d×4",182 mm^3
same,tumor volume,"N87 gastric xenografts; DAY 11, dose 5 mg/kg intravenously Q4d×4",152 mm^3
same,tumor volume,"N87 gastric xenografts; DAY 14, dose 1 mg/kg intravenously Q4d×4",282 mm^3
same,tumor volume,"N87 gastric xenografts; DAY 14, dose 3 mg/kg intravenously Q4d×4",191 mm^3
same,tumor volume,"N87 gastric xenografts; DAY 14, dose 5 mg/kg intravenously Q4d×4",155 mm^3
same,tumor volume,"N87 gastric xenografts; DAY 18, dose 1 mg/kg intravenously Q4d×4",263 mm^3
same,tumor volume,"N87 gastric xenografts; DAY 18, dose 3 mg/kg intravenously Q4d×4",161 mm^3
same,tumor volume,"N87 gastric xenografts; DAY 18, dose 5 mg/kg intravenously Q4d×4",138 mm^3
same,tumor volume,"N87 gastric xenografts; DAY 21, dose 1 mg/kg intravenously Q4d×4",227 mm^3
same,tumor volume,"N87 gastric xenografts; DAY 21, dose 3 mg/kg intravenously Q4d×4",123 mm^3
same,tumor volume,"N87 gastric xenografts; DAY 21, dose 5 mg/kg intravenously Q4d×4",110 mm^3
same,tumor volume,"N87 gastric xenografts; DAY 26, dose 1 mg/kg, intravenously Q4d×4",205 mm^3
same,tumor volume,"N87 gastric xenografts; DAY 26, dose 3 mg/kg, intravenously Q4d×4",108 mm^3
same,tumor volume,"N87 gastric xenografts; DAY 26, dose 5 mg/kg intravenously Q4d×4",69 mm^3
same,tumor volume,"N87 gastric xenografts; DAY 29, dose 1 mg/kg, intravenously Q4d×4",180 mm^3
same,tumor volume,"N87 gastric xenografts; DAY 29, dose 3 mg/kg, intravenously Q4d×4",99 mm^3
same,tumor volume,"N87 gastric xenografts; DAY 29, dose 5 mg/kg intravenously Q4d×4",50 mm^3
same,tumor volume,"N87 gastric xenografts; DAY 33, dose 1 mg/kg, intravenously Q4d×4",211 mm^3
same,tumor volume,"N87 gastric xenografts; DAY 33, dose 3 mg/kg, intravenously Q4d×4",106 mm^3
same,tumor volume,"N87 gastric xenografts; DAY 33, dose 5 mg/kg intravenously Q4d×4",43 mm^3
same,tumor volume,"N87 gastric xenografts; DAY 36, dose 1 mg/kg, intravenously Q4d×4",215 mm^3
same,tumor volume,"N87 gastric xenografts; DAY 36, dose 3 mg/kg, intravenously Q4d×4",122 mm^3
same,tumor volume,"N87 gastric xenografts; DAY 36, dose 5 mg/kg intravenously Q4d×4",52 mm^3
same,tumor volume,"N87 gastric xenografts; DAY 39, dose 1 mg/kg intravenously Q4d×4",261 mm^3
same,tumor volume,"N87 gastric xenografts; DAY 39, dose 3 mg/kg intravenously Q4d×4",128 mm^3
same,tumor volume,"N87 gastric xenografts; DAY 39, dose 5 mg/kg intravenously Q4d×4",45 mm^3
same,tumor volume,"N87 gastric xenografts; DAY 42, dose 1 mg/kg, intravenously Q4d×4",283 mm^3
same,tumor volume,"N87 gastric xenografts; DAY 42, dose 3 mg/kg, intravenously Q4d×4",149 mm^3
same,tumor volume,"N87 gastric xenografts; DAY 42, dose 5 mg/kg intravenously Q4d×4",34 mm^3
same,tumor volume,"N87 gastric xenografts; DAY 47, dose 1 mg/kg, intravenously Q4d×4",262 mm^3
same,tumor volume,"N87 gastric xenografts; DAY 47, dose 3 mg/kg, intravenously Q4d×4",105 mm^3
same,tumor volume,"N87 gastric xenografts; DAY 47, dose 5 mg/kg intravenously Q4d×4",25 mm^3
same,tumor volume,"N87 gastric xenografts; DAY 53, dose 1 mg/kg intravenously Q4d×4",302 mm^3
same,tumor volume,"N87 gastric xenografts; DAY 53, dose 3 mg/kg intravenously Q4d×4",104 mm^3
same,tumor volume,"N87 gastric xenografts; DAY 53, dose 5 mg/kg intravenously Q4d×4",29 mm^3
same,tumor volume,"N87 gastric xenografts; DAY 62, dose 1 mg/kg intravenously Q4d×4",415 mm^3
same,tumor volume,"N87 gastric xenografts; DAY 62, dose 3 mg/kg intravenously Q4d×4",116 mm^3
same,tumor volume,"N87 gastric xenografts; DAY 62, dose 5 mg/kg intravenously Q4d×4",33 mm^3
same,tumor volume,"N87 gastric xenografts; DAY 70, dose 1 mg/kg intravenously Q4d×4",521 mm^3
same,tumor volume,"N87 gastric xenografts; DAY 70, dose 3 mg/kg intravenously Q4d×4",139 mm^3
same,tumor volume,"N87 gastric xenografts; DAY 70, dose 5 mg/kg intravenously Q4d×4",58 mm^3
same,tumor volume,"N87 gastric xenografts; DAY 78, dose 1 mg/kg intravenously Q4d×4",622 mm^3
same,tumor volume,"N87 gastric xenografts; DAY 78, dose 3 mg/kg intravenously Q4d×4",172 mm^3
same,tumor volume,"N87 gastric xenografts; DAY 78, dose 5 mg/kg intravenously Q4d×4",67 mm^3
same,tumor volume,"N87 gastric xenografts; DAY 84, dose 1 mg/kg intravenously Q4d×4",709 mm^3
same,tumor volume,"N87 gastric xenografts; DAY 84, dose 3 mg/kg intravenously Q4d×4",149 mm^3
same,tumor volume,"N87 gastric xenografts; DAY 84, dose 5 mg/kg intravenously Q4d×4",85 mm^3
same,tumor volume,"N87 gastric xenografts; DAY 91, dose 1 mg/kg intravenously Q4d×4",848 mm^3
same,tumor volume,"N87 gastric xenografts; DAY 91, dose 3 mg/kg intravenously Q4d×4",178 mm^3
same,tumor volume,"N87 gastric xenografts; DAY 91, dose 5 mg/kg intravenously Q4d×4",104 mm^3
same,tumor volume,"N87 gastric xenografts; DAY 99, dose 3 mg/kg intravenously Q4d×4",214 mm^3
same,tumor volume,"N87 gastric xenografts; DAY 99, dose 5 mg/kg intravenously Q4d×4",118 mm^3
same,tumor volume,"N87 gastric xenografts; DAY 103, dose 3 mg/kg intravenously Q4d×4",123 mm^3
same,tumor volume,"N87 gastric xenografts; DAY 103, dose 5 mg/kg intravenously Q4d×4",135 mm^3
same,tumor volume,"N87 gastric xenografts; DAY 112, dose 3 mg/kg intravenously Q4d×4",126 mm^3
same,tumor volume,"N87 gastric xenografts; DAY 112, dose 5 mg/kg intravenously Q4d×4",166 mm^3
same,tumor volume,"N87 gastric xenografts; DAY 120, dose 3 mg/kg intravenously Q4d×4",128 mm^3
same,tumor volume,"N87 gastric xenografts; DAY 120, dose 5 mg/kg intravenously Q4d×4",226 mm^3
same,tumor volume,"N87 gastric xenografts; DAY 133, dose 3 mg/kg intravenously Q4d×4",175 mm^3
same,tumor volume,"N87 gastric xenografts; DAY 133, dose 5 mg/kg intravenously Q4d×4",258 mm^3
same,animals that were tumor-free,"N87 gastric xenografts; by day 133, 5 mg/kg dose group, iv Q4dx4",6 out of 9
same,"IC50 (ng Ab/mL), MDA-MB-468/hNotch3",MDA-MB-468/hNotch3,3.2 ng Ab/mL and 3 ng Ab/mL
